In all, about 48,000 compounds went through this assay and about 120 (0.25%) were called active. Another 4% or so got no clear call; they are omitted. Calls follow the shape of the dose curve; as a rule, active = well fitted activation curve with a large enough effect; inconclusive = small, poorly fitted or top-dose-only effect, or another doubt; inactive = no such curve, though single readings can be large or run the other way. This is one part of the list.
Experiment: Primary qHTS for Identification of Small Molecule Activators of Huntingtin-Antisense Promoter Activity; also: nearly all actives have a fitted effect of over 55% in size
Conditions: HEK293 HTT-AS promoter firefly luciferase reporter (activity 0% = vehicle and -100% = no light), 24 h; series mostly up to 57.5 µM; activity change, positive = activation: at the top concentration
Method in brief: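 Firefly luciferase signal from promoter-reporter HEK293 cells was scaled between vehicle (0%) and zero RLU (-100%). Compounds were tested at final concentrations of up to 57.5 uM over 24 h at 37 degrees C. PTC124 at 50 uM final served as control inhibitor.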

Activity change, positive = activation, inactive:
Cc1c(Cl)cccc1NC(=O)Nc1nnc(N(C)C2CCCCC2)s1 -11%, Cc1ccc(CCNC(=O)c2cnc3c(C)cccn3c2=O)cc1 12.8%, CCCCCCNC(=O)CCc1c(C)nc2nc(-c3cc(OC)cc(OC)c3)nn2c1C -16.2%, Cc1ccc(C(=O)c2cn(Cc3cc(C)ccc3C)c3nc(C)ccc3c2=O)cc1 -26%, CN(C1CCCCC1)S(=O)(=O)c1ccc2c(c1)c(=O)c(C(=O)N1CCN(c3ccc(F)cc3)CC1)cn2C -6.91%, CCOCCCNC(=O)C(NC(=O)C1CCC(C)CC1)C(C)C (configuration not stated) -3.97%, CCN1CCSc2ccc(C(=O)NCc3ccc(F)cc3)cc21 -17%, CCCCNC(=O)c1cc(-c2cccnc2)nc2ccc(S(=O)(=O)NCCCC)cc12 -12%, COc1ccc(NCc2cccn2-c2nnc(N3CCOCC3)s2)cc1OC -6.38%, COc1ccc(CNC(=O)Cn2ncc3c(=O)oc4ccccc4c32)c(OC)c1 2.38%, CC(=O)c1c(C)n(S(=O)(=O)c2ccc(Cl)cc2)c2ccc(NS(=O)(=O)c3ccc(Cl)cc3)cc12 -24.3%, Cc1cc(C)cc(NC(=O)Cn2nc(N3CCN(c4ccccc4)CC3)ccc2=O)c1 -25.9%, CC(C)c1ccc(OCC(=O)Nc2cc(-c3ccccc3)no2)cc1 0%, COc1ccc(S(=O)(=O)NCCc2sc(-c3cccnc3)nc2C)cc1OC -11%, COc1cc(CN(C(=O)c2ccccc2Br)c2ccccn2)cc(OC)c1OC -12.7%, Cc1ccc(NC(=O)CN2C(=O)C(c3ccc(C)cc3)=NC23CCCCCC3)cc1 -40.2%, Cc1ccc(C)c(N2CCN(C(=O)CCS(=O)(=O)c3ccc4c(c3)oc(=O)n4C)CC2)c1 -29.4%, COc1ccc2c(c1)c(=O)c(S(=O)(=O)c1ccc(Cl)cc1)cn2Cc1cc(C)ccc1C -8.37%, CCOC(=O)c1ccc(N)cc1 -2.97%, CCOc1cc2c(cc1OCC)C(CC(=O)OC)N(C(=O)Nc1cc(OC)ccc1OC)CC2 (configuration not stated) -49.3%, CCN(CC)C(=O)c1sc2c(c1C)c(=O)n(CCc1ccccc1)c(=O)n2Cc1ccc(C)cc1 -23.1%, CCn1ccc2c(OCC(=O)Nc3ccc(C)c(Cl)c3)cccc2c1=O -27.9%, COc1cccc(N2CCN(C(=O)CCSCc3ccccc3F)CC2)c1 -4.59%, CCN(CC)c1cc(C)c2cc(NC(=O)c3cc(OC)cc(OC)c3)ccc2n1 -17.8%, Cc1cccc(C(=O)Nc2c(C(=O)N3CCN(c4ccc(F)cc4)CC3)oc3ccccc23)c1 -16.5%, CCOC(=O)C1CCN(S(=O)(=O)c2cc3c4c(c2)C(C)C(=O)N4CCC3)CC1 (configuration not stated) -8.11%, Cc1cc(=O)n(Cc2c(F)cccc2Cl)c2c1c(C)nn2-c1cccc(F)c1 -8.83%, O=C(Cc1ccc(Cl)cc1)NCC(c1cccs1)S(=O)(=O)c1ccccc1 (configuration not stated) -18.3%, CCCSc1ncc(Cl)c(C(=O)Nc2sc(C(C)=O)c(C)c2C(=O)OCC)n1 13.3%, Cc1ccc(S(=O)(=O)N(CC(=O)Nc2ccc(F)cc2F)Cc2ccc(F)cc2)cc1 -22.7%, CC(=O)Nc1ccc(NC(=O)c2cc(CN3CCCC3)on2)cc1 -0.787%, COc1cc(C(=O)NC(c2ccccc2Cl)c2cc(Cl)c3cccnc3c2O)cc(OC)c1OC (configuration not stated) -58.8%, COc1ccccc1C(=O)Nc1cccc(C(=O)OCc2cc(=O)n3c4c(sc3n2)CCCC4)c1 -33.6%, COc1ccc(NC(=O)CSc2oc(-c3ccco3)nc2S(=O)(=O)c2ccc(C)cc2)c(OC)c1 0.83%, Cc1c(CNC(C)CCc2ccccc2)c(C(=O)O)c(C)n1Cc1ccc(F)cc1 (configuration not stated) -23.7%, CN(C)S(=O)(=O)c1ccc2c(c1)N(CC(=O)Nc1cccc(C(F)(F)F)c1)C(=O)CS2 -17%, Cc1onc(-c2ccccc2Cl)c1C(=O)Oc1ccccc1F -25.4%, CC(C)(C)OC(=O)N1CCC(N2CCN(Cc3ccccc3)C(=O)C2=O)CC1 -1.74%, CCCCCCCCCCCCc1ccc(S(=O)(=O)Nc2nncs2)cc1 -1.16%, CCOC(=O)c1ccccc1NC(=O)NCc1c(-n2cccc2)sc2c1CCCC2 -6.05%, CCOc1ccc(NC(=O)C(CC(C)C)N2Cc3ccccc3C2=O)cc1 (configuration not stated) -5.81%, CCN(CC)CCOC(=O)C(c1ccccc1)c1ccccc1 -15%, Cc1csc2nc(COC(=O)c3cccc(NC(=O)COc4ccccc4Cl)c3)cc(=O)n12 -15%, OC(CCCN1CCCCC1)(c1ccccc1)c1ccccc1 -15.2%, COCCCNC(=O)c1nn(C)c2c1CS(=O)(=O)c1ccccc1-2 -13.4%, CCc1cccc(NC(=O)Cc2nc(-c3ccc(OC)cc3)no2)c1 -17.4%, COc1ccc(CNC(=O)CC2N=C3c4ccccc4N=C(SCC(=O)Nc4ccc(C(C)C)cc4)N3C2=O)cc1 (configuration not stated) 1.98%, COCc1cc(C)nc2sc3c(c12)NC(c1ccccc1C(=O)O)N(c1cccc(C(F)(F)F)c1)C3=O (configuration not stated) 6.01%, Cc1ccc(S(=O)(=O)c2nc(-c3cccc(Br)c3)oc2N2CCCCCC2)cc1 6.13%, COc1cc([N+](=O)[O-])ccc1NC(=O)c1nc2ccccc2n(C)c1=O 3.03%, O=C(CSc1nnc2[nH]c(=O)cc(-c3ccccc3)n12)Nc1ccc(OC(F)(F)F)cc1 23.3%, COc1ccccc1NC(=O)CSc1oc(-c2ccco2)nc1S(=O)(=O)c1ccc(C)cc1 2.31%, CCOc1ccc(NC(=O)c2oc3ccccc3c2NC(=O)C(C)(C)C)cc1 -4.27%, O=C(CC1N=C2c3ccccc3N=C(SCC(=O)Nc3ccc(F)cc3)N2C1=O)NCc1ccco1 (configuration not stated) -27.4%, CCOc1ccc2nc(N3CCCC(C(=O)Nc4ccc(OC)cc4)C3)sc2c1 (configuration not stated) 25.5%, COc1ccc(CCNC(=O)c2c(O)nc3ccccn3c2=O)cc1OC -17.1%, Cc1ccc(C(=O)Nc2nnc(S(=O)(=O)N(C)Cc3ccc(Cl)cc3)s2)cc1 -4.46%, COc1cc(Nc2ncc3c(n2)CCN(Cc2ccc(OC(C)C)c(OC)c2)C3)cc(OC)c1 -24.6%, CCc1nn2c(=O)cc(COC(=O)c3ccc(NC(=O)COc4ccccc4C)cc3)nc2s1 -9.05%, O=C(Nc1ccccc1-c1nc2ccccc2s1)c1ccc(F)cc1 14.9%, Cc1ccc(CN2CCCn3nc(C(=O)NCc4ccc(N(C)C)cc4)cc3C2=O)cc1 -35.4%, COc1ccc(CCNc2nc3c(-c4cccc(C(F)(F)F)c4)nnn3c3ccccc23)cc1OC 2.97%, O=C(CSc1nc2ccsc2c(=O)n1-c1ccc(Cl)cc1)NCc1ccc(Cl)cc1 -38.7%, CC1CCN(c2nc(-c3ccc(C(C)(C)C)cc3)nc3ccccc23)CC1 -44.1%, CCC(=O)N1CCc2cc(S(=O)(=O)NCCC(=O)Nc3ccc(CC)cc3)ccc21 -10.7%, CC(C)CNC(=O)Nc1cc(C(=O)NCc2ccc(C(C)C)cc2)ccc1N1CCCC1 -9.3%, CCOc1ccc(NC(=O)c2cc3cc(C)ccc3n2C)cc1 1.38%, CCOC(=O)c1sc2ncn(CC(=O)Nc3cc(Cl)ccc3C)c(=O)c2c1C 9.94%, CCOC(=O)c1cc2c(=O)n3ccccc3nc2n(CC2CCCO2)c1=NC(=O)c1ccccc1Br (configuration not stated) 15.6%, CC(=O)c1ccc(N2CCN(C(=O)c3cc(S(=O)(=O)N4CCCCCC4)cn3C)CC2)cc1 -20%, Cc1cccc(NC(=O)CSc2ccc(-c3sc(-c4ccccc4)nc3C)nn2)c1C -4.5%, CC(=O)Nc1cccc(NC(=O)CSc2nccn2Cc2ccc3c(c2)OCO3)c1 -12.2%, Cc1cc(C(=O)Nc2c(C)cccc2C)n(-c2ccccc2)n1 -12%, COCCCNC(=O)c1ccc(Cn2c(SCc3ccc(F)cc3)nc3cccnc32)cc1 8.33%, O=C(OCc1cc(=O)n2nc(-c3cccs3)sc2n1)c1cccc(F)c1 3.74%, CC(C)CCN(C(=O)Nc1ccc(Cl)c(Cl)c1)C1CCN(C(C)C)CC1 -20.1%, O=C(c1noc2c1CCCCC2)N1CCN(c2cccc(Cl)c2)CC1 -21.7%, Cc1ccc(NC(=O)N2CC3CCCN3c3ccccc32)cc1Cl (configuration not stated) -18.2%, O=C(Cn1ncc2c3ccccc3n(Cc3ccccc3F)c2c1=O)N1CCCCCC1 0.237%, CCN1CCN(c2nnc(-n3cccc3C(=O)NCc3ccccc3OC)s2)CC1 5.93%, COc1ccc(NC(=O)C2CCN(C3=NS(=O)(=O)C(c4ccc(C)c(C)c4)=C3C)CC2)c(OC)c1 -18%, Cc1ccccc1OC(=O)c1cc(-c2ccc3c(c2)OCCO3)on1 -3.01%, O=C(NCCc1csc(-c2cccc(F)c2)n1)C(=O)Nc1cc(F)ccc1F 2.88%, COc1cccc(CNC(=O)C2CCN(S(=O)(=O)c3c(C)noc3/C=C/c3cccs3)CC2)c1 -24.4%, Cc1ccc(C)c(NC(=O)Cc2coc3cc(C)cc(C)c23)c1 -14%, CCc1ccccc1NC(=O)Cn1nnc2sc3c(c2c1=O)CCC(C(C)(C)C)C3 (configuration not stated) -29.9%, COc1ccc(C)cc1NS(=O)(=O)c1cnc(N)nc1 -8.27%, CCNC(=O)c1ccc(C)c(-n2c(C)nc3cccnc32)c1 1.73%, Cc1ccc(NC(=O)Cn2c(=O)c3ccc(Cl)cc3n3nncc23)cc1 -8.88%, O=C(Cn1c(-c2cccs2)cc2ccccc21)N1CCN(c2ccc(Cl)cc2)CC1 -3.24%, CCOc1ccc(C2C(C(=O)Nc3ccccc3)=C(C)Nc3nc(-c4ccccc4)nn32)cc1OC (configuration not stated) -14.9%, COc1cccc(-c2csc(-c3c(N)c(C(=O)c4ccc5c(c4)OCO5)n4ccccc34)n2)c1 5.65%, Cc1ccc(S(=O)(=O)NC(=O)NN2CCCCCC2)cc1 -13.1%, COc1ccc(-c2cn3c(n2)sc2cc(C(=O)NCCC4=CCCCC4)ccc23)cc1 12.3%, COc1cccc(OC)c1C(=O)N[C@@H]1C(=O)N2[C@@H]1SC(C)(C)[C@@H]2C(=O)O 0.497%, COc1ccc(OC)c(NC(=O)C(C)n2c(=O)cc(C)c3c(C)nn(-c4ccccc4)c32)c1 (configuration not stated) -1.41%, O=c1c2cnn(-c3ccc(F)cc3)c2ncn1Cc1ccccc1Cl -7.99%

Source: PubChem BioAssay AID1508624 (National Center for Advancing Translational Sciences (NCATS), 2021)
